From publication PMC6212790
This is one part of the list. At the low end of the ranking the order means little.

Target: T1, GST-Rok-C97-191 (UniProt O34857)
T1 sequence: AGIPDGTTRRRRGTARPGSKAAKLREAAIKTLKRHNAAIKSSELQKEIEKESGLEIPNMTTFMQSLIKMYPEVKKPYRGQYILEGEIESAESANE
Experiment: protein binding microarray;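 further: rank score from −0.5 (least bound) to 0.5 (best bound)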
Conditions: Rok is a gene silencer of Bacillus subtilis; high values mean tight binding; most listed sequences are background and not binding sites; double strand, one strand shown

Sequence | binding signal
GTACGTTA | 0.221 E-score
ATGTTAAC | 0.157 E-score
AGCGGCAG | -0.3 E-score
ATTCACCA | 0.126 E-score
ATAGACCG | 0.139 E-score
CGCAGATC | -0.17 E-score
CTACGGAG | 0.083 E-score
ATGAGTTA | 0.222 E-score
GCGTCTAA | -0.0779 E-score
AAACTTGT | 0.0347 E-score
TGAACGAA | 0.00482 E-score
AGCAGGCT | -0.0665 E-score
AAGACGCT | -0.239 E-score
GATCGTAA | -0.0815 E-score
ATTCTACA | 0.382 E-score
ATGGAAGG | -0.165 E-score
ATGACTTA | 0.024 E-score
GCGAGTAC | 0.0245 E-score
ACCTCCTG | -0.301 E-score
GGGTGCTA | -0.17 E-score
TAACCGCA | 0.0332 E-score
TACCACAA | 0.193 E-score
TCAGATCA | -0.117 E-score
AATTCGCA | 0.129 E-score
GCGAAAGC | -0.253 E-score

Sequence | binding signal
GTATGGAA | -0.108 E-score
GTCAGAAC | 0.0868 E-score
AGCGTTGA | -0.0912 E-score
GACATCCC | -0.332 E-score
GTGTAGGA | -0.0878 E-score
AGACCGCA | -0.043 E-score
CCAGTACG | -0.174 E-score
ATCCCGAG | -0.0929 E-score
ATACCACG | 0.0833 E-score
AGGCCTAG | 0.0496 E-score
CCGTGGTC | -0.0945 E-score
CACTGTGA | 0.0741 E-score
AGCTTAAG | -0.183 E-score
ATGTTCGA | 0.0616 E-score
AAGTAGTG | 0.211 E-score
ACGGGAGC | -0.351 E-score
AAGTGGCA | -0.0203 E-score
GGGAGCCC | -0.353 E-score
ACCAAAAG | -0.0914 E-score
ACATGTCG | 0.044 E-score
AAAAAGCG | -0.0544 E-score
AATCCAGT | 0.118 E-score
ACACTTTC | 0.15 E-score
GCGGAGCC | -0.301 E-score
CACTAAGA | -0.241 E-score

Sequence | binding signal
AGGCCATA | -0.254 E-score
ACCTCCAA | -0.125 E-score
CTGTCGTA | -0.069 E-score
ACCCCATC | -0.162 E-score
CACCGGAA | -0.0186 E-score
ATAGGTTC | 0.2 E-score
GACACGCC | -0.0522 E-score
AAAGATCG | -0.000347 E-score
GAGGTAGA | 0.334 E-score
ATACAATA | 0.327 E-score
CACGGTAC | 0.0962 E-score
GCGATCGA | 0.0939 E-score
ATAAGAAG | 0.0784 E-score
GTAAAGGA | -0.146 E-score
CATGTCTA | -0.0685 E-score
AGGATACG | 0.0782 E-score
ACTGCACT | -0.0818 E-score
CGCCCACC | -0.372 E-score
CAGCGAAG | -0.168 E-score
CAACCTCG | -0.0668 E-score
CCACGAAG | -0.214 E-score
AGTTCTCA | -0.0628 E-score
CGCAGCTA | -0.0864 E-score
CAATGCAA | -0.00697 E-score
GATGCATA | 0.176 E-score

Sequence | binding signal
CTTTTGGA | -0.152 E-score
CGAGAGAC | -0.146 E-score
GTTGAGCA | -0.0745 E-score
AGTACACT | 0.185 E-score
CTAGTCGC | 0.0993 E-score
GAAGTAGA | 0.24 E-score
CAACTTGC | 0.0202 E-score
CGGGGCAC | -0.178 E-score
ACTTCCAC | -0.0227 E-score
GAGCTTCA | -0.178 E-score
GCGAGACC | -0.114 E-score
CCGTGTGA | -0.245 E-score
GGAGGGCA | -0.392 E-score
GGCCTATA | 0.0686 E-score
GAGCAACA | -0.00379 E-score
ACACAAGG | -0.241 E-score
GTAGTAAC | 0.307 E-score
ACGATCAG | -0.178 E-score
TATATCCA | 0.316 E-score
ATATGACG | 0.0156 E-score
CTACGCCA | 0.0114 E-score
AAGATAGC | 0.193 E-score
GAACAATA | 0.109 E-score
AACGAAAC | 0.12 E-score
AGCTTTGA | 0.0387 E-score

Sequence | binding signal
CAGCTATA | 0.211 E-score
CCCCATTA | -0.128 E-score
GAATACAA | 0.306 E-score
CCCATTCG | -0.145 E-score
ACCTACGC | -0.0344 E-score
CATGGCGA | -0.0793 E-score
AAGCACTG | -0.256 E-score
GTGTCGAA | 0.0527 E-score
GCTACGTA | 0.241 E-score
ATTTAACC | 0.239 E-score
ATACCCTC | -0.00407 E-score
CCCTATCG | 0.13 E-score
AACGCAGG | -0.188 E-score
CGCGCCAC | -0.23 E-score
ACTAACGA | 0.101 E-score
CTCCTTTC | -0.151 E-score
CCCCAAAA | -0.239 E-score
AGCTTACA | -0.133 E-score
ACCAACAT | 0.157 E-score
AACGATTA | -0.0994 E-score
GGGCACCA | -0.27 E-score
TACAAGAA | 0.0958 E-score
ATGATCCC | -0.0142 E-score
AGAGCAGG | -0.101 E-score
GTATAAGA | 0.2 E-score

Sequence | binding signal
GGCAGCAA | -0.0597 E-score
AGCCCCAA | -0.167 E-score
CGGCAGCC | -0.182 E-score
CCCGAAAA | 0.0648 E-score
CGAGCAAA | -0.00441 E-score
ATCCCTTG | -0.112 E-score
AGGCTCTC | -0.242 E-score
GAGAGGAC | -0.278 E-score
GGCGACGA | -0.297 E-score
AGGTATTG | 0.168 E-score
AATGTGGG | 0.0924 E-score
CTCTTGGC | 0.0601 E-score
TATTACAA | 0.254 E-score
CACGGATC | -0.0864 E-score
ATTGTCGC | -0.0869 E-score
GCAGGAGC | -0.247 E-score
AGGTATTC | -0.0121 E-score
CATAGGAC | 0.15 E-score
CTTTTGAA | -0.0177 E-score
CCCCCGCC | -0.353 E-score
CAGGCCCA | -0.348 E-score
CAGGAATG | -0.083 E-score
ATCCACCA | 0.00743 E-score
GGTAGCCA | -0.0323 E-score
GGTTATAA | 0.0781 E-score

Sequence | binding signal
CCTCTCCG | -0.221 E-score
ACGACCCC | -0.0896 E-score
AACTGAGC | 0.0188 E-score
AGAAAGTA | 0.313 E-score
CCAGGACG | -0.112 E-score
ATGCCAAT | -0.01 E-score
CCCTCAGC | -0.342 E-score
AAACCCCG | -0.299 E-score
ACGTCGCG | 0.0663 E-score
CGCTTTAC | -0.24 E-score
AATAACGA | 0.169 E-score
TACAGGTA | 0.184 E-score
AATGTAGG | 0.198 E-score
AGCCGCGG | -0.194 E-score
AAAATTGT | 0.272 E-score
AATCAGGT | 0.183 E-score
ACCGCTCA | -0.00862 E-score
CACATCCA | -0.0233 E-score
CTCGTGTA | -0.11 E-score
CATCAAGA | -0.0734 E-score
CTTTAAAC | 0.126 E-score
ATTTCCAA | 0.107 E-score
